Data reported in the RNAGym collection of RNA variant scans (doi:10.7554/elife.90254).
The source gives no read counts; variants with many changes may rest on few reads.

B1: LINE1-mini (parent)
chain: GGCAGAGCUCAACACAGCGUGGCAAAGUGGCUGUGGCUAGACUGCC

Variants of: B1
Assay: self-cleavage, relative activity (ratio to wild type); higher = more cleavage; in vitro, sequencing; the parent is a self-cleaving ribozyme

Variant | self-cleavage
A6U C23G G44U | 0.11
C31G U34C C37A | 0.04
A14G U32C G36U G40U | 0.11
C13G C31G U38A | 0.03
C31A G40C U43G | 0.03
C3A A12G U38G G44U | 0.02
A24U U28G G33C | 0.01
C15U G17U A25G G44C | 0.06
U9A A12C A24G | 0.03
A14C G17C G21U G22U G29U U32G G35A | 0.05
C10A G21A G22A G40A | 0.01
G2C A4U A25G | 0.07
U20A A24G U32A | 0.08
G1C C3U G36C C37G G44U | 0.03
G5U A11G A24U G29C U43G | 0.01
G7A C8U U9G G22U U32A | 0.06
A11U A14U G35C | 0.02
G1U A12C G33C U34G | 0.01
A6C A14U C18A U20G G21A | 0.04
A11U U32G U38G C46G | 0
A6G G40U C42U | 0.02
A12C U32A U34A | 0.01
C18U G27A G30U | 1.06
C3G A6G G27C | 0.04

Variant | self-cleavage
A14U C18A G19A | 0.04
C8G A16G G19U U20A | 0.02
G22A U32G C37G | 0.04
G7A C10A A39C | 0.02
G7A A11U A12U A16U C18G | 0.01
G7U C8U G30C | 0.3
G22A U28C G35U C45A | 0.06
G2A A11U U20C | 0.29
G5C G21A G22C C31U G33U | 0.02
C8G C13G C15U G29A C31A | 0.1
U9G C15A G17A U20G | 0.11
C23U G44U C45A | 0.25
C3U U32A G35C C37G | 0.03
C8U C10U A16G C42G | 0.03
G17U U20A C31A | 1.22
G2U C8G A25G U28C | 0.1
C3A G5A U32G | 0.28
G7A A11C A16G G21U | 0.02
C8G C13G C31A U34A G36U | 0.08
G1C C3A C8A A14G G29U G36C C37G | 0.09
G1C A4G A24U | 0.07
C8G C18U U28A U32G | 0.08
G5A C18A G19A U43C | 0.02
G7A C13G G22A G36A | 0.22

Variant | self-cleavage
A26C G29U C42G | 0.03
C3A C8A A14G | 0.52
G7A A12G G17C G22A | 0.01
C18A A26G U28C G33A | 0.2
G1C C3A C13U A16G G22U U43A | 0.01
G1A U9A G17C C18A A41G | 0.05
C10A A11C G22U | 0
C10G A26C C31A A41C C42G | 0.01
A4U C8G C18A G21A G33C U34A G36U | 0.08
G36C U38A A41U | 0.02
A24G A25G G27A | 0.95
A6C C23A A26G | 0.15
A4G G19A G21U A26G C45A | 0.09
A24G G29U U34A | 0.08
G21A G36U G40U | 0.21
C8A U9A A16G C23G U38G | 0.03
G7U U20G A26C | 0.09
G1C C10U A16C G21A U32C | 0.04
G1A G2C G21C A41U C42G U43A | 0.02
U9C U38C G40U | 0.01
C10U U28A U38A A41C | 0.02
G1U C10U C15U G40A C42A | 0.01
G1A A12C G30A G33A | 0.02
C8A A24U G36C | 0.08

Variant | self-cleavage
G22U A25G C31G C42U | 0.01
G7A C23G U38G C46G | 0.01
G2U G36C C37U U38G C42A | 0.02
A14G G27U G30A U38A A41G | 0
C13A U28A G29U C37U C42G G44C | 0.08
G1U U34G G44C | 0.07
C10A A12G C15U A16C C42G | 0.04
A11G C18G U28G G35A C45U | 0.02
C13G A16G G22A G27C C46A | 0.01
A11C A24U G27U G44A | 0
A24U G33C A39G | 0.11
A24U G33A G36U | 0.02
G1C C3A G30C | 0.05
G17A G36A U38C G44A | 0.01
G2U G27A U38C A41C | 0.01
U9A C10G C15G C23G U34A G35A C42G | 0.01
A4U U32A G35U A41C C42G | 0.05
U9C A11U A12C U28A C42G | 0.01
C15U A24C G36C C45G | 0.04
G29C G33U C37A C46A | 0.02
C3U G7U C23U G29U C45U | 0.09
C8U C15U A25G C31A G36C U43A | 0.07
C3A A4U G36A A41G | 0.25
A4G G7U U34G G44A | 0.37

Variant | self-cleavage
A26G G27C G35C A39C C46U | 0.01
G5C C18G C45G | 0.03
G5U U28G A41C | 0.03
G2U G19C G22U | 0.27
U9A G17A G21U | 0.08
A12U G21U G33A C42A | 0.42
A6C C15G A16U G17U U28C U32A | 0.05
G2A C31U G40A | 0.04
A12U G21U A26C | 0.59
G7U U20A C23A C31G G44C | 0.01
A6G A16C G17C G27A G44C | 0.02
A14G U20G G21U G35A | 0.02
C15A G21C G35A | 0.05
G2C U9G U28A | 0.04
C3A U9A C10A A39U C46A | 0.08
C13A C18A G29C A41G | 0.03
G5U C10A C42G | 0.03
G21A A24U C31A | 0.05
G19C C42A C46G | 0
C13A C18U U20A | 0.01
A6G C15A G19U G29U G36A C37U G40A U43A | 0.04
C3U A16U G17A U20A A25G G27C A41U C46U | 0.07
G29A U32G C37G | 0.03
G17U G19A U28G C45U | 0.25

Variant | self-cleavage
G21C U38G A41U | 0
G2U G21U A26G G29U U32C | 0.04
A4G C8U U20C C31U U38A | 0.11
C8G C10A G30U G44U | 0.01
A4U G22C A26U | 0.05
C15U G17U G22A G40U | 0.1
G21C G29A C37G | 0.02
A4G C13U G17C C18A | 0.1
A6G A14U C18A | 0.02
U20G G30C C37U G40C C42A | 0.03
G2C C10G C31A | 0.01
C23A C37U U38A A39C | 0.08
U34C C42A G44C | 0.11
G21A A26G G36C A39C | 0.01
G5U A26G U43C | 0.06
G1U C18U G22U A26G | 0.34
A11G C15G G17C | 0.01
G2A G35A C37U | 0.21
C8U G17C G21A A25U C45G | 0.01
G1C U28C G35A A41G | 0.01
C8G G19A U43A | 0.01
G1C U9A C10U A12C G40A | 0.01
C8G U9A C46A | 0.13
G2U C23A G40U | 0.01

Variant | self-cleavage
G2C G35U C37A | 0.08
A6C C10A A14U G22A C31A G44U | 0.01
G2A C8A C23A A26C C31U C45G | 0.41
A12G C13A G29C | 0.02
A4G A11G C18U | 0.07
G1U A25G U28A U32C | 0.01
A6G A26C G35U U38C | 0.01
U9G A12U G17A A39C | 0.03
G1U C18A G21C | 0.04
C8A C15U G35C C46A | 0.1
A25C G27A U34A | 0.19
G17U G35U G36A C46G | 0.05
G5C U20A G29A C31A | 0.04
C13G U20C U28A C31G A39G | 0.07
C10U G17C G40C | 0.02
G1C C15A C23A | 0.01
G17A A24C U28C | 1.47
C3A G17U A26G G30U | 0.1
G19C G33A G36C G40U | 0.03
G2C G5U C13A C31U | 0.03
G1A A11G G40C C45U | 0.06
G1U A16G C31G | 0.02
G27C A39G C42U | 0.03
